In all, about 310,000 compounds went through this assay and about 14,000 (4.5%) showed an effect of 50% or more. The effect is printed as a negative number. The list shows a part of the results.
What follows are molecules tested against human ether-à-go-go-related gene (hERG) potassium channel (human, UniProt Q12809) (assay: primary screen, population patch clamp on CHO cells stably expressing hERG).
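Further: peak tail current of the secondary pulse compared with the same well before compound.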

Sequence of human ether-à-go-go-related gene (hERG) potassium channel (Q12809 whole entry, looked up): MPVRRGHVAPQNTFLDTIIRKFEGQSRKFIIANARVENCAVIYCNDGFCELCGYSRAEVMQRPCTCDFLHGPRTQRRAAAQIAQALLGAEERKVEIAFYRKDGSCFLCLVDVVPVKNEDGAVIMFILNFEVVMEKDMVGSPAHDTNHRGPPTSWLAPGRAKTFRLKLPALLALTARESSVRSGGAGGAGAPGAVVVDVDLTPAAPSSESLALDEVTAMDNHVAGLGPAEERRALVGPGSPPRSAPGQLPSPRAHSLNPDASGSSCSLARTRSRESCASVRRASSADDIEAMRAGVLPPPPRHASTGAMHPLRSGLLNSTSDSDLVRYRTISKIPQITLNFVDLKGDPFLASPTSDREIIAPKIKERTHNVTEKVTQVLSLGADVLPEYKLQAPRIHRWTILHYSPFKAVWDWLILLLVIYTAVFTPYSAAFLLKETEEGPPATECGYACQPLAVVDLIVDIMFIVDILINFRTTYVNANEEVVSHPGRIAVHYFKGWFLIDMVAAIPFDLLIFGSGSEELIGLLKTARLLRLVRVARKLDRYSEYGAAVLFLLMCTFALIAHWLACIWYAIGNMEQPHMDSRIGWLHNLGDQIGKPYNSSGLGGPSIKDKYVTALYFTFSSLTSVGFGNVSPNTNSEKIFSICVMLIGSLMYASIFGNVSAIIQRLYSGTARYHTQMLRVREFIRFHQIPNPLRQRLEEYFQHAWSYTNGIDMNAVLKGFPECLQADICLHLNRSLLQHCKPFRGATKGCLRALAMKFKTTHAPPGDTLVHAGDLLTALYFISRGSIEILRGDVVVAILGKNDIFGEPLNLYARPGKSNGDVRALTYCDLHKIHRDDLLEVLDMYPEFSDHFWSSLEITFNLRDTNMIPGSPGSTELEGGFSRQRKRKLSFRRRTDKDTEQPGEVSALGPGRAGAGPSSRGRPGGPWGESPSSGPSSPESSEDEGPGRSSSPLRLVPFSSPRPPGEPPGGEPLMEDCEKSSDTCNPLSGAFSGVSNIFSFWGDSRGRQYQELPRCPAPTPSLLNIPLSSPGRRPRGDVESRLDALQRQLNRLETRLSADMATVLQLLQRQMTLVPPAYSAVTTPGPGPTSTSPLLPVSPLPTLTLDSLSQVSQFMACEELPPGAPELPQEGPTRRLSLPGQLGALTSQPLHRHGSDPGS

Row | SMILES | hERG current change (%, negative = inhibition) at 10uM
1 | CN(Cc1nc(Cc2ccccc2F)no1)Cc1cccc2ncccc12 | -35.7%
2 | COC(=O)CCC(=O)c1oc2ccccc2c1N | -26.3%
3 | COc1cc(NC(=S)N2CCN(C)CC2)cc(OC)c1 | 16.7%
4 | CCOc1cc(CNC2CCCC2)cc(Cl)c1OCc1ccccc1.Cl | -10.3%
5 | COc1ccc(-c2csc3ncnc(N4CCN(C(=O)c5ccco5)CC4)c23)cc1 | -75.3%
6 | Cc1c(Cl)cccc1NC(=O)Cc1ccc([N+](=O)[O-])cc1 | -1.34%
7 | C/C(CC(C)C)=N\NS(=O)(=O)c1ccc(C)c([N+](=O)[O-])c1 | -1.16%
8 | CCC(Sc1nnnn1-c1ccccc1)C(=O)Nc1nc2ccccc2s1 (stereo not drawn) | -10.7%
9 | COc1ccc(S(=O)(=O)N2CCC(C(=O)NCCCc3ccccc3)CC2)cc1 | -35.9%
10 | COc1ccc(OC)c(C(=O)c2coc3ccc(OCC(=O)O)cc23)c1 | 2.9%
11 | Cc1nc2nc(SCC(=O)C(C)(C)C)[nH]c2cc1Br | 3.89%
12 | CCOC(=O)C1=C(CC)Nc2ccccc2N=C1NC(=O)CCN1C(=O)C2CCCCC2C1=O (stereo not drawn) | 5.04%
13 | Cc1ccc2c(C)c(C(=O)Nc3ccc(S(N)(=O)=O)cc3)oc2c1C | 31.2%
14 | Cc1ccc(-n2c(O)c(C=NC3CCS(=O)(=O)C3)c3ccccc3c2=O)c(C)c1 (stereo not drawn) | -0.346%
15 | O=C(CN1C(=O)C(=O)c2ccccc21)c1ccccc1 | 10.9%
16 | CC1(c2ccccc2Cl)NC(=O)N(CC(=O)NCc2ccc3c(c2)OCO3)C1=O (stereo not drawn) | 7.45%
17 | COc1ccc(CNC(=O)c2ccc(CS(=O)c3ccccc3)o2)cc1 (stereo not drawn) | 4.41%
18 | CCc1nnc(SCc2ccc(OC(C)C)cc2)n1N | 9.36%
19 | COc1ccc(OC)c(NC(=O)CSC2=NN3CCCC(=O)N=C3S2)c1 | 7.78%
20 | O=C(c1ccc(-n2cncn2)c([N+](=O)[O-])c1)N1CCN(S(=O)(=O)c2ccc(Cl)cc2)CC1 | -61.4%
21 | COc1ccc(CNC(=O)CCc2ccc(S(=O)(=O)N3CCCCCC3)cc2)cc1 | -54.9%
22 | COc1cc(/C=C/[N+](=O)[O-])ccc1O | -5.46%

Row | SMILES | hERG current change (%, negative = inhibition) at 10uM
23 | CCNC(=O)c1ccc(-n2nc(C(F)(F)F)c3c2CCCC3)cc1 | -14.1%
24 | Nc1ccc(-c2nc3nc(N)nc(N)c3nc2-c2ccc(N)cc2)cc1 | 16.9%
25 | COC(=O)/C=C1/SC(=NC(=O)c2ccc(OC)cc2)NC1=O | 19.6%
26 | CCCN(C(=O)c1ccc(N2CCCC2=O)cc1)C1CCS(=O)(=O)C1 (stereo not drawn) | 5.68%
27 | CC(=O)c1ccc(OCC(C)C)c(CN2CCCCC2)c1.Cl | -19%
28 | C=C(Cl)COc1ccc2c(CC)cc(=O)oc2c1 | -33.9%
29 | O=C(NCC(=O)N1CCN(c2ccccc2)CC1)c1ccc(Cl)cc1 | 13.6%
30 | COc1ccc(CNC(=O)C2CCNCC2)cc1 | 20.6%
31 | O=C(O)COc1ccc(S(=O)(=O)NCCc2ccccc2)cc1 | 6.4%
32 | CCN(CC)CCCN1C(=O)CSC1c1ccc([N+](=O)[O-])cc1.Cl (stereo not drawn) | -72.8%
33 | CCS(=O)(=O)N1CCC(C(=O)NCC2CCCO2)CC1 (stereo not drawn) | -10.8%
34 | O=c1[nH]c(CN2CCN(S(=O)(=O)c3ccccc3C(F)(F)F)CC2)nc2sc3c(c12)CCCC3 | 10.9%
35 | O=C(NCCC(=O)N1CCN(Cc2c(F)cccc2Cl)CC1)c1ccc(Cl)cc1 | -46%
36 | COc1ccc(/C=N/NC(N)=S)cc1OC(=O)c1cccc2ccccc12 | 1.42%
37 | CC(=O)N1CCN(S(=O)(=O)c2cccc(C(=O)OCC(=O)N(CCC#N)c3ccc(F)cc3)c2)CC1 | 9.96%
38 | COc1cccc(CN2CC(C(=O)NCCn3ccc(C)n3)CCC2=O)c1 (stereo not drawn) | 0.915%
39 | CN(C)CCCNC(=O)c1ccccc1Oc1ccccc1 | -23.4%
40 | Cc1csc2nc(CNC(=O)c3cccc(C(F)(F)F)c3)cn12 | -21.3%
41 | CC(C)NS(=O)(=O)c1ccc(OCC(=O)N2CCCC2)c(Cl)c1 | -1.74%
42 | Cc1cccc(C)c1N1CC(=O)N(c2c(C)cccc2C)CC1=O | -1.91%
43 | Cc1nc2sc3c(NCc4ccco4)ncnc3c2c2c1COC(C)(C)C2 | 11%
44 | C=CCN(c1ccccc1)S(=O)(=O)c1cccc(C(=O)Nc2nc3ccccc3[nH]2)c1 | 15.6%

Row | SMILES | hERG current change (%, negative = inhibition) at 10uM
45 | O=C(NC(=S)Nc1ccc2[nH]c(=O)[nH]c2c1)c1cncc(Br)c1 | 5.93%
46 | CCCc1cc2c(=O)c(-c3ccc4c(c3)OCCO4)coc2cc1OS(C)(=O)=O | 23.4%
47 | COc1ccc(-c2cc(=Nc3ccc(C)cc3)c3ccccc3o2)cc1 | 5.87%
48 | O=C(Nc1ccc(Br)cc1Cl)c1ccc2c(=O)n3c(nc2c1)CCC3 | -26.1%
49 | Cc1ccc(S(=O)(=O)CCC(=O)N2CCN(c3ccccc3F)CC2)cc1 | -12.2%
50 | CC(C)CC(NC(N)=O)C(=O)Nc1cccc([N+](=O)[O-])c1 (stereo not drawn) | -0.263%
51 | Cc1ccccc1NC(=O)CN(C)S(=O)(=O)c1cccc2cccnc12 | -6.84%
52 | COc1ccc(NC(=O)c2ccc(CN(c3cc(Cl)ccc3C)S(=O)(=O)c3ccccc3)cc2)cc1OC | 0.171%
53 | O=C(CSc1n[nH]c(-c2ccccn2)n1)Nc1cccc(Cl)c1 | -0.85%
54 | Cc1cc(C)n(-c2nnc(C)n2/N=C/c2ccccc2OCc2ccccc2Cl)n1 | -28.2%
55 | O=C(O)c1cc(N/N=C/c2cccs2)ccc1Cl | 11.6%
56 | OCCCn1c(C2CCCN2c2nc(-c3ccc(F)cc3)cs2)nc2cc(Cl)c(N3CCCCC3)cc21 (stereo not drawn) | 11.8%
57 | CCOc1ccc(Br)cc1S(=O)(=O)NC1CC(C)(C)NC(C)(C)C1 | 13.1%
58 | C=CCc1cc(C=O)cc(OC)c1OCc1ccc(Cl)cc1 | 2.79%
59 | CCS(=O)(=O)NC(C)C(c1cccs1)N1CCN(c2ccc(OC)cc2)CC1 (stereo not drawn) | -7.31%
60 | Cc1cccc(-n2ncc3c(N4CCc5ccccc54)ncnc32)c1 | 19.8%
61 | CCCOc1cccc(C(=O)Nc2cc(NC(=O)c3ccco3)ccc2OC)c1 | -81.2%
62 | CCOc1ccccc1NC(=O)C(=O)N/N=C/c1cc(Br)ccc1O | 16.2%
63 | C=CC12C=CC=CN1C(C(=O)OC)=C(C(=O)OC)C(C(=O)OC)=C2C(=O)OC (stereo not drawn) | 0.682%
64 | CC1(NC(=O)Cc2c(Cl)cccc2Cl)CCS(=O)(=O)C1 (stereo not drawn) | 4.62%
65 | COC(=O)c1ccc(SC2CCCCC2)c([N+](=O)[O-])c1 | 34.7%
66 | CCCNC(=O)CS(=O)Cc1nc(-c2ccc(OC)cc2)oc1C (stereo not drawn) | -2.48%

Row | SMILES | hERG current change (%, negative = inhibition) at 10uM
67 | Cc1cc(-c2cc(C(=O)NCc3ccccc3)on2)nc(NCC2CC2)n1 | 11.6%
68 | CC1CCN(S(=O)(=O)c2ccc(C(=O)NCc3ccc4c(c3)OCO4)cc2)CC1 | -6.57%
69 | CC1=CCC2([N+](=O)[O-])CN(CC(=O)O)CC1([N+](=O)[O-])C2 (stereo not drawn) | -10.2%
70 | O=C(NC1CCCc2ccccc21)c1cccc(Br)c1 (stereo not drawn) | 0.874%
71 | COc1ccc(NC(=O)CN(C)C(=O)Cn2cnc3c2c(=O)n(C)c(=O)n3C)cc1 | 0.754%
72 | COc1cc(NC(=O)c2ccccc2)c(OC)cc1NC(=O)CN1CCOCC1 | -7.18%
73 | COc1ccc(CCN2C(=O)CS/C2=N/NC(=O)c2ccccc2F)cc1OC | 23.6%
74 | O=C(NC(=S)NNC(=O)c1ccco1)c1ccc(F)cc1 | 20.3%
75 | C[n+]1cc[nH]c1SCC(=O)c1ccccc1.[Br-] | 4.16%
76 | CCCNC(=O)c1nn2c(C(F)(F)F)cc(-c3ccccc3)nc2c1Cl | -4.1%
77 | COc1cc(CNCCc2ccc(F)cc2)ccc1OCc1ccc(Cl)nc1.Cl | -68.2%
78 | CC1COc2ccccc2N1C(=O)c1ccc(Cl)nc1 (stereo not drawn) | -4.07%
79 | S=c1[nH]nc(-c2ccc(Cl)cc2)n1CCCN1CCOCC1 | 9.41%
80 | COc1ccc(-n2nc3c(N4CCC(C(=O)NCc5cccc(C)c5)CC4)nnc(C)c3c2C)cc1 | -8.52%
81 | COc1cc2c(cc1OC)CN(CC(=O)Nc1ccc(Cl)c(S(=O)(=O)N(C)C)c1)CC2 | -19.3%
82 | COc1cc(OC)c(C(=O)OCC(=O)c2cc(C)n(CC3CCCO3)c2C)cc1OC (stereo not drawn) | 13.3%
83 | CCCCC[C@H]1CN(C2CCCCC2)C(=O)[C@@H]1CC(=O)NCc1ccc(OC)cc1 | -67.4%
84 | O=C(Cc1cccc(C(F)(F)F)c1)N1CCCC1 | 23.4%
85 | O=C(CSc1ncn[nH]1)c1cc2ccccc2o1 | 22.3%
86 | O=C(Nc1ccc(S(=O)(=O)N2CCCC2)cc1)C1CCN(S(=O)(=O)c2ccc(F)cc2)CC1 | 12.9%
87 | O=C(NCc1ccco1)C(c1ccccc1)N(C(=O)Cc1cccs1)c1cccnc1 (stereo not drawn) | -13.8%
